Hit rate of the full screen: of about 110,000 compounds, about 40 (0.04%) were called active. Inconclusive means that the source gave no clear call. Such entries were picked first, then a sample of the others. The call rests on the fitted dose curve; in most records, active means well fitted curve in the direction sought with a large enough effect in the signal ratio (not every such curve was filed as active); inconclusive means small, poorly fitted or top-dose-only effect, or a change in a side signal; inactive means flat fitted curve, though single readings scatter; the % refers to the signal ratio. Potencies of inconclusive entries are doubtful fits and often do not repeat.
Assay: IkB Signaling;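 on IkBa stabilization activation: 0% = basal untreated cells and 100% = reference inhibitor full response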
Details: ABC-DLBCL IkBa-CBG/CBR dual luciferase ratio (green luciferase fused to IkBa over red control in OCI-Ly3 lymphoma cells), 4 h; IkBa stabilization activation: at 57.1 µM (top of the series), scaled: untreated 0%, proteasome inhibitor 100% unless noted
Procedure, shortened: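 In this assay, an IκBα–CBG68 fusion accumulates when IKK-driven degradation is blocked; native CBR normalizes for cell number. OCI-Ly3 cells were treated 4 h with compound and doxycycline, then green and red light read after Chroma-Glo addition.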
Potency means the concentration at half of the fitted maximal effect.

Structure (SMILES)	IkBa stabilization activation	Potency
CCOc1ccc(NC(=O)Cc2ccc(-n3c(C)nc4cccnc43)cc2)cc1	inconclusive: 0.188% [signal inhibitor]	
COc1ccc(OC)c(C2/C(=C(\O)c3c(C)nc4ccccn34)C(=O)C(=O)N2CCCN(C)C)c1 (stereo unspecified)	inactive	
CCc1nc(Nc2ccc(N3CCN(C(C)=O)CC3)cc2)c2oc3ccccc3c2n1	inconclusive: -2.73% [signal inhibitor]	
O=C(c1ccco1)N1CCC(c2ccccc2)C1 (stereo unspecified)		inconclusive: 15.8 µM [signal inhibitor, partial curve]
CN1CCN(c2nc(-c3ccc4c(c3)OCO4)nc3ccccc23)CC1	inactive: -4.12% [at 11.4 µM, scaled: untreated 0%, proteasome inhibitor 100%]	
CCn1cc(C(=O)NCc2cccs2)c(=O)c2cc(S(=O)(=O)N3CCOCC3)ccc21	inactive	
CCN(CC)CCNC(=O)c1[nH]c2ccccc2c1Sc1ccc(Cl)cc1	inconclusive: 2.81% [signal inhibitor]	
CCOc1ccc2nc(NC(=O)COC)sc2c1	inactive	
O=C(Nc1cc(Cl)ccc1Cl)c1cc(S(=O)(=O)N2CCCc3ccccc32)ccc1F	inconclusive: 0.764% [signal inhibitor]	
CN(C(=O)c1ccc2c(c1)N(Cc1ccccc1F)C(=O)c1ccccc1S2(=O)=O)C1CCCCC1	inconclusive: -1.06% [signal inhibitor]	
COc1ccc(-n2c(C)cc(C(=O)CSc3nn4c(=O)c(C(C)(C)C)nnc4s3)c2C)cc1	inactive	
CN1CCN(c2ncc3nc(-c4ccccc4)c(=O)n(CCC#N)c3n2)CC1	inactive: -2.31% [at 11.4 µM, scaled: untreated 0%, proteasome inhibitor 100%]	
Cc1cc(C)c(/C=C/c2onc(C)c2S(=O)(=O)N2CCC(C(=O)Nc3ccc(Cl)cc3C)CC2)c(C)c1	inconclusive: 0.493% [signal inhibitor]	
Cc1ccccc1NC(=O)c1c(NC(=O)C(F)(F)F)sc2c1CCCCC2	inconclusive: 6.78% [signal inhibitor]	
Cn1nnc2cc(C(=O)Nc3cccnc3)ccc21	inactive	
COc1ccc(-c2c3c(nc4sc(C(=O)Nc5cc(C)on5)c(N)c24)CCC3)cc1	inactive	
N=c1n(CCO)c2ccccc2n1CCOc1ccc(Cl)cc1Cl	inconclusive: -9.79% [signal inhibitor]	
COC(=O)/C=c1/sc2nc3ccccc3n2c1=O	inactive	
COc1ccc(-c2nnc(Nc3nc4c(OC)cccc4s3)o2)cc1		inconclusive: 25.1 µM [signal inhibitor, partial curve]
CCOC(=O)c1c(C)c(C(=O)NCc2ccc(Cl)cc2)c(C)n1CC	inconclusive: 0.978% [signal inhibitor]	
CC(C)c1ccccc1Oc1c(C(F)(F)F)oc2c(CN3CCN(C)CC3)c(O)ccc2c1=O	inconclusive: 1.32% [signal inhibitor]	
COc1ccc(C2CC(=O)c3cnc(NC(=O)c4ccccc4OC)nc3C2)c(OC)c1 (stereo unspecified)	inactive	
Cn1c(-c2ccc(S(=O)(=O)N3CCCC3)cc2)csc1=Nc1ccc(Cl)c(Cl)c1	inconclusive: 15.3% [signal inhibitor]	
CCOc1ccccc1Nc1sc(C(=O)c2ccc(Cl)cc2)c(N)c1C(=O)NCCc1ccccc1	inconclusive: -0.89% [signal inhibitor]	

Structure (SMILES)	IkBa stabilization activation	Potency
O=C(Cn1c(=O)n(CCc2ccccc2)c(=O)c2c3c(sc21)CCCC3)Nc1ccc(F)c(F)c1	inactive	
Fc1ccc(N2CCN(C(c3cccs3)c3nnnn3CCc3ccccc3)CC2)cc1 (stereo unspecified)	inconclusive: 2.34% [signal inhibitor]	
O=C(NC1=NCCS1)c1ccc(OCC2CCCO2)cc1 (stereo unspecified)	inactive	
Cc1ccccc1NC(=O)CSc1nc2ccccc2c2nc(CCn3c(C)nc4ccccc43)nn12	inactive	
CCn1cc(C(=O)NCCCOC)c2cc(OC)c(OC)cc2c1=O	inactive	
COc1ccc(NCc2cc3ccc(OC)cc3n(CC(=O)Nc3cccc(OC)c3)c2=O)cc1	inconclusive: 0.575% [signal inhibitor]	
OC(COc1ccc2ccccc2c1)CN1CCCC1 (stereo unspecified)	inconclusive: 8.18% [signal inhibitor]	
CN(c1ccccc1)c1nc(-n2ccnc2)nc(-n2ccnc2)n1	inactive	
O=C1c2ccccc2C(Nc2ccc3c(c2)OCO3)N1Cc1ccco1 (stereo unspecified)	inactive	
O=c1cc(-c2ccccc2)oc2ccccc12	inactive	
CCCCCCSC1=C(C#N)C(c2ccc(C)o2)CC(=O)N1 (stereo unspecified)	inactive	
CCc1cccc(NC(=O)Cn2c(=O)n(CCC(=O)NCC3CCCO3)c(=O)c3cc(OC)c(OC)cc32)c1 (stereo unspecified)	inconclusive: 5% [signal inhibitor]	
Cn1c(/N=C/c2cc(Cl)ccc2O)nc2ccccc21	inconclusive: 13.5% [signal inhibitor]	
Cc1c(C(=O)Nc2ccc(F)cc2)oc2ccc(S(=O)(=O)N3CCC4(CC3)OCCO4)cc12	inconclusive: 18.7% [signal inhibitor]	
CN(C)c1ccc(NC(=O)CN2CCN(CC(=O)Nc3ccc(Br)cc3)CC2)cc1	inactive	
CCCCN(CCCNC(=O)CN1C(=O)COc2ccccc21)c1ccccc1	inconclusive: -0.035% [signal inhibitor]	
Cc1ccc(CSC2=Nc3ccccc3C3=NC(CC(=O)NCc4cccs4)C(=O)N23)cc1 (stereo unspecified)	inconclusive: 0.24% [signal inhibitor]	
CC1CC(=O)N(CC(=O)Nc2ccc(F)cc2F)c2ccccc2S1 (stereo unspecified)	inconclusive: -0.513% [signal inhibitor]	
O=C(CCCn1ccc2cc(S(=O)(=O)N3CCCC3)ccc21)NCc1ccc(Cl)cc1	inconclusive: 0.176% [signal inhibitor]	
CCCn1c(=O)c(C)cn2nc(N)nc12	inactive	
COc1ccc(NC(=O)Nc2cccc(-c3cn4cccnc4n3)c2)cc1	inconclusive: 14.8% [signal inhibitor]	
COC(=O)c1ccc(NC(=O)C2CCCN2S(=O)(=O)c2ccc(C)cc2)cc1 (stereo unspecified)	inactive	
COc1ccc(Nc2nc(-c3sc(N)nc3C)cs2)cc1	inactive	
COc1ccc(-c2cc(C(=O)N3CCN(c4ccc(F)cc4)CC3)no2)cc1OC	inconclusive: 12% [signal inhibitor]	

Structure (SMILES)	IkBa stabilization activation	Potency
COc1ccc(C2CC(=O)c3c([nH]c(C(=O)OC4CCCCCC4)c3C)C2)cc1OC (stereo unspecified)		inconclusive: 6.31 µM [signal inhibitor, single point]
c1ccc(CC2CCN(c3nnnn3-c3ccccc3)CC2)cc1	inconclusive: 2.12% [signal inhibitor]	
c1ccc2cc(C3=NCCN3)ncc2c1	inconclusive: 6.73% [signal inhibitor]	
O=c1[nH]c(CSc2ncc(-c3ccc(F)cc3)n2Cc2ccco2)nc2ccccc12		inconclusive: 25.1 µM [signal inhibitor, partial curve]
Cc1cccc(OCC(=O)N(Cc2ccc(C(C)C)cc2)Cc2ccco2)c1C	inconclusive: 0.97% [signal inhibitor]	
CCN(C(=O)c1nn(-c2ccc(C)cc2)c(=O)c2c1c1ccccc1n2C)c1ccc(F)cc1	inconclusive: 0.86% [signal inhibitor]	
O=C(NCCc1ccccc1)c1ccc(CSc2nc3ccncc3n2Cc2ccccc2F)cc1	inconclusive: 0.856% [signal inhibitor]	
Cc1ccc(N2CC(NC(=O)c3ccco3)CC2=O)cc1C (stereo unspecified)	inconclusive: 1.82% [signal inhibitor]	
CCOc1ccc(-c2nnc(-c3ccco3)o2)cc1OCC	inactive	
CCOC(=O)c1cnc2c(C)cc(Cl)cc2c1NCCc1ccc(OC)c(OC)c1	inconclusive: 8.89% [signal inhibitor]	
CCOC(=O)c1cc(-c2ccc(F)cc2)n(CCC(=O)NCc2ccccc2OC)c1C	inconclusive: -3.99% [signal inhibitor]	
COc1ccc(NC(=O)C(C)n2c(C)c3cnn(-c4ccccc4)c(=O)c3c2C)cc1Cl (stereo unspecified)	inactive	
O=C(c1cccc(F)c1)N1CCC(c2c[nH]c3ccccc23)(c2c[nH]c3ccccc23)CC1	inconclusive: 4.6% [signal inhibitor]	
COc1ccc(C(=O)Nc2nnc(S(=O)(=O)N3CCC(C)CC3)s2)cc1OC	inconclusive: -4.6% [signal inhibitor]	
O=C1CC(c2ccco2)CC2=C1C1c3ccccc3C(=O)N1c1ccccc1N2 (stereo unspecified)	inconclusive: -2.91% [signal inhibitor]	
COc1cccc(CNS(=O)(=O)c2ccc(N3CCCCS3(=O)=O)cc2)c1	inactive	
CCOC(=O)C1=C(CN2CCCCC2)NC(=O)NC1c1ccc(C)cc1 (stereo unspecified)	inconclusive: 3.58% [signal inhibitor]	
COc1ccccc1N1CCN(S(=O)(=O)c2ccc3c4c(cccc24)C(=O)N3)CC1	inconclusive: 2.86% [signal inhibitor]	
O=C(NCC(c1ccc2c(c1)OCO2)N1CCN(c2ccccc2F)CC1)c1ccccc1F (stereo unspecified)	inconclusive: -3.49% [signal inhibitor]	
CCOC(=O)c1c(C)oc2nc(C)nc(N3CCN(c4cccc(C(F)(F)F)c4)CC3)c12	inconclusive: 0.291% [signal inhibitor]	
COc1ccc(C2CC(=O)N(CC(=O)Nc3ccc(C(C)=O)cc3)c3ccccc3S2)cc1OC (stereo unspecified)	inconclusive: 4.53% [signal inhibitor]	
Cc1ccc2[nH]c(CSc3nnc(NC(=O)COc4ccc(F)cc4)s3)cc(=O)c2c1	inconclusive: -1.4% [signal inhibitor]	
COCCn1c(CNc2ccc(F)cc2)nnc1SCC(=O)Nc1ccc(OC)cc1OC	inconclusive: 2.35% [signal inhibitor]	
